# Results taken from PubChem BioAssay AID504832 (National Center for Advancing Translational Sciences (NCATS), 2011).
# The campaign covered roughly 310,000 compounds. About 18,000 (5.8%) were called active. The shares of active, inactive and inconclusive entries below differ from those in the screen. Calls come from the whole dose curve; as a rule, active = well fitted inhibition curve with a large enough effect; inconclusive = small, poorly fitted or top-dose-only effect, or another doubt; inactive = no such curve, though single readings can be large or run the other way. Potencies of inconclusive entries are left out as doubtful fits.
# Assay: Primary qHTS for delayed death inhibitors of the malarial parasite plastid, 48 hour incubation
# Settings: P. falciparum luciferase growth in erythrocytes; series mostly up to 28.7 µM
# Outline: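 Firefly luciferase activity from engineered P. falciparum reports growth; inhibitors lower the luminescent signal. Cultures contained 2% hematocrit erythrocytes at 0.1% final parasitemia.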
# Potency is the fitted concentration of half-maximal effect; tags give direction and shape of the fitted curve.
row,SMILES,Potency
1,CCOC(=O)C1CCN(C(c2cccc(OC)c2)c2sc3nc(C)nn3c2O)CC1 (centres undefined),"inconclusive [inhibitor, single point]"
2,Nn1c(SCCOc2ccccc2)nnc1-c1cccnc1,inactive
3,CN(C)/C=C1\SC(=S)N(c2ccc(Br)cc2)C1=O,active: 2.33 µM
4,O=C(Nc1ccccc1)c1nnn(Cc2ccccc2)c1NC(=O)C(F)(F)F,inactive
5,COc1ccc(S(=O)(=O)N2CCCCCC2)cc1NC(=O)Cc1cc(OC)c(OC)c(OC)c1,"inconclusive [inhibitor, partial curve]"
6,CCN(CCCNC(=O)c1c(C)cc(=O)oc1C)c1ccccc1,"inconclusive [inhibitor, single point]"
7,S=C1SCN(Cc2cccnc2)CN1Cc1cccnc1,active: 1.85 µM
8,CN1CCN(CCC(=O)Nc2ccc3c(c2)OCO3)CC1,inactive
9,Cc1cc(C)n(-c2nc3ccccc3c(=O)n2OCc2ccc(F)cc2)n1,"inconclusive [inhibitor, partial curve, poor fit]"
10,CC(C)(C)OC(=O)NCCCC[C@H](NC(=O)c1[nH]cnc1C(=O)N[C@@H](Cc1ccccc1)C(=O)OC(C)(C)C)C(=O)OC(C)(C)C,active: 2.94 µM
11,O=C(CCNC(=O)c1ccc(Br)cc1)NCCCSc1ccccc1,inactive
12,C=C(C)COc1ccc2c(C)c(CCC(=O)N3C[C@H]4C[C@@H](C3)c3cccc(=O)n3C4)c(=O)oc2c1,"inconclusive [inhibitor, partial curve, poor fit]"
13,Cc1cccc(NC(=S)NNC(=O)c2ccccc2Br)c1,inactive
14,COc1ccccc1N1CCN(C(c2ccc(Cl)cc2)c2nnnn2C(C)(C)C)CC1 (centres undefined),active: 6.57 µM
15,O=C(Nc1ccc(N2CCN(C(=O)c3ccco3)CC2)cc1)c1cccc(F)c1,"inconclusive [inhibitor, partial curve]"
16,O=C(N/N=C\c1cccnc1)C1c2ccccc2Oc2ccccc21,"inconclusive [inhibitor, full curve]"
17,CN(CC(=O)Nc1c(Cl)cccc1Cl)C(=O)CNC(=O)c1ccco1,inactive
18,O=C(Cc1ccccc1F)Nc1ccc(Cl)nc1,"inconclusive [inhibitor, partial curve, poor fit]"
19,Cc1cc(N(C(=O)c2ccco2)C(C(=O)NC2CCCCC2)c2ccccc2)ccc1-n1cnnn1 (centres undefined),active: 9.28 µM
20,CCC(=O)N1CCc2cc(OC)c(OC)cc2C1COc1ccccc1OC (centres undefined),"inconclusive [inhibitor, partial curve, poor fit]"
21,Cc1ccc(NC(=O)Nc2nnc(-c3ccncc3)s2)cc1C,"inconclusive [inhibitor, single point]"
22,Cc1cc(C)c(S(=O)(=O)N2CCOC2CNC(=O)C(=O)NCCN(C)C)c(C)c1 (centres undefined),inactive
23,O=C(c1ccccc1)N(Cc1nc2ccccc2c(=O)[nH]1)C1CCCC1,"inconclusive [inhibitor, single point]"

row,SMILES,Potency
1,CC(=O)N1CCN(C2=NC(=O)C(=C3CCCCC3)S2)CC1,"inconclusive [inhibitor, partial curve, poor fit]"
2,COc1ccccc1-n1c(-c2ccccc2Br)nc2ccccc2c1=O,"inconclusive [inhibitor, single point]"
3,COC(=O)c1cc(S(=O)(=O)C(C)C)c(S(C)=O)s1 (centres undefined),"inconclusive [inhibitor, single point]"
4,CCOC(=O)/C(C#N)=C/Nc1ccccc1NS(=O)(=O)c1ccc(C)c(C)c1,"inconclusive [inhibitor, partial curve]"
5,O=[N+]([O-])c1ccccc1Oc1ccccc1Cl,"inconclusive [inhibitor, single point]"
6,COc1ccc(-n2c(N)c(C(=O)Nc3c(C)n(C)n(-c4ccccc4)c3=O)c3nc4ccccc4nc32)cc1,active: 4.65 µM
7,CCN(CC)C(=O)CSc1nnc(NC(=O)CCc2ccccc2)s1,"inconclusive [inhibitor, partial curve, poor fit]"
8,Fc1cccc(Cn2cc(C(=S)N3CCOCC3)c3ccccc32)c1,"inconclusive [inhibitor, single point]"
9,O=C(Nc1ccccc1-c1ccccc1)NC1CCN(C(=O)N2CCOCC2)CC1,"inconclusive [inhibitor, single point]"
10,CC(=O)c1ccc(N2CCN(C(=O)C3(S(=O)(=O)c4ccc(Cl)cc4)CC3)CC2)cc1,"inconclusive [inhibitor, single point]"
11,O=C(NCc1ccco1)/C(=C/c1ccco1)NC(=O)c1ccc(Br)o1,"inconclusive [inhibitor, partial curve, poor fit]"
12,Clc1ccc(OCCn2cnc3ccccc32)cc1,"inconclusive [inhibitor, partial curve, poor fit]"
13,CCN(CC(=O)Nc1ccccc1OC)C(=O)c1ccc2[nH]c3c(c2c1)CC(C)CC3 (centres undefined),"inconclusive [inhibitor, single point]"
14,CCN1CCS/C1=C/C=C/C1=[N+](CC)CCS1,active: 0.738 µM
15,COc1ccc(/C=N/NC(=O)C2COc3ccccc3O2)cc1OC (centres undefined),inactive
16,Cc1cc(N/N=C/c2ccccc2O)nc(N2CCOCC2)n1,active: 10.4 µM
17,CCN(C(=O)c1cc2c(C)nc3ccccc3c2o1)c1cc(Cl)ccc1OC,"inconclusive [inhibitor, partial curve, poor fit]"
18,Cc1cc(Br)cn2ccnc12,inactive
19,CN1C(=O)[C@@H]2[C@@H]3C[C@@H]([C@H]4ON=C(c5ccc(Cl)cc5Cl)[C@@H]34)[C@@H]2C1=O,inactive
20,Cc1ccn2cc(C(=O)N3CCN(c4cnn(-c5ccccc5)c(=O)c4Cl)CC3)nc2c1,"inconclusive [inhibitor, single point]"
21,CCN(CC)CCCN(Cc1cc2cc3c(cc2[nH]c1=O)OCO3)C(=S)Nc1ccc(OC)cc1,"inconclusive [inhibitor, single point]"
22,Cc1nc2ncnn2c(C)c1C/C=C/c1ccccc1,"inconclusive [inhibitor, single point]"
23,O=S(=O)(c1ccc2ccccc2c1)N1CCN(C(=S)Nc2ccccc2F)CC1,active: 1.65 µM

row,SMILES,Potency
1,Cc1cc(C)c(S(=O)(=O)c2cccc(C(F)(F)F)c2)c(=O)[nH]1,"inconclusive [inhibitor, single point]"
2,CCC(C(=O)OCC(=O)NC(=O)c1ccccc1OC)c1ccccc1 (centres undefined),inactive
3,O=C(Nc1ccccc1)NC1(C(=O)NCCCN2CCOCC2)CCCCC1,inactive
4,Cc1cc(C)c2sc(N(CCCN(C)C)C(=O)c3ccc(S(=O)(=O)N4CCc5ccccc5C4)cc3)nc2c1,"inconclusive [inhibitor, single point]"
5,COc1cc(/C=N\NC(=O)C2COc3ccccc3O2)cc(OC)c1O (centres undefined),"inconclusive [inhibitor, single point]"
6,CCCCCCC(=O)c1c(C)[nH]c(C(=O)OCC)c1C,"inconclusive [inhibitor, single point]"
7,COc1ccccc1N1CCN(C(=O)c2oc3ccccc3c2C)CC1,"inconclusive [inhibitor, partial curve, poor fit]"
8,CCCc1c(O)c2ccccc2[nH]c1=O,inactive
9,COc1ccc(C)cc1NC(=O)C(Sc1nnc(-c2cccs2)o1)c1ccccc1 (centres undefined),"inconclusive [inhibitor, partial curve, poor fit]"
10,Cc1cc(C(=O)N2CCCC(C(=O)c3ccc4ccccc4c3)C2)n(C)n1 (centres undefined),"inconclusive [inhibitor, full curve, poor fit]"
11,CCn1c(SC)nc2c(c1=O)SC(C)C2 (centres undefined),"inconclusive [inhibitor, single point]"
12,COc1ccc(C(CCN2CCCC2)c2c(O)cc(OC)cc2OC)cc1 (centres undefined),"inconclusive [inhibitor, full curve, poor fit]"
13,COc1ccccc1Cn1c(C(C)C)nc2ccccc21,"inconclusive [inhibitor, full curve, poor fit]"
14,COc1ccc(NC(=O)CN(C)CC(=O)Nc2cccc(F)c2)cc1Cl,"inconclusive [inhibitor, single point]"
15,Cc1cccc(N2CCN(C(=O)C3CCC(=O)N(Cc4ccccc4F)C3)CC2)c1C (centres undefined),active: 9.28 µM
16,NC(=O)[C@@H]1CCCN1Cc1nc(-c2ccc(C(F)(F)F)cc2)no1,inactive
17,O=C(NNc1ccc(-c2csnn2)cc1)c1cc(Cl)cc(Cl)c1,"inconclusive [inhibitor, full curve, poor fit]"
18,Cc1ccc2nc(N(CCCN(C)C)C(=O)c3ccc4c(c3)CCCC4)sc2c1,active: 10.4 µM
19,CC1CCCCC1NC(=O)C1CCN(c2c3c(nc4ncnn24)CCC3)CC1 (centres undefined),active: 9.28 µM
20,CCn1cnc2c1c(=O)n(CC(=O)Nc1cc(C)on1)c(=O)n2Cc1ccccc1,"inconclusive [inhibitor, partial curve, poor fit]"
21,Cc1ccc(-n2c(SCC(=O)Nc3cccc(C)c3)nc3c(oc4ccccc43)c2=O)cc1,"inconclusive [inhibitor, single point]"
22,Clc1cccc(-c2ccc3ncnc(NCc4ccc5c(c4)OCO5)c3c2)c1,active: 6.57 µM
23,Cc1ccc(C)c(Cn2c(C(C)O)nc3ccccc32)c1 (centres undefined),"inconclusive [inhibitor, single point]"
